Results reported in US20260297121A1, “MITHRAMYCIN (MTM) 2’ OXIMES” (University of Kentucky Research Foundation, priority 2023, published 2026).
At least one compound was matched to its structure with a doubt left.

System: TC32 cells
Experiment: Potency IC50 in TC32 cells and selectivity
Assay type: cell-based
Details: IC50 in PC3/IC50 in TC32; for In vitro Selectivity: Table 4
Protocol: Exemplary compounds of the presently-disclosed subject matter were assessed for activity, including clearance, potency, and selectivity. Results from studies are compiled in Tables 2-4.
Desirable clearance was identified at lower values of mL hr^−1kg^−1 (e.g., about ≤10 mL hr^−1 kg^−1), desirable potency was identified at lower values of IC50 (e.g., about ≤10 nM in TC32 cells), and desired selectivity was identified at higher ratios of IC50 in PC3/IC50 in TC32 (e.g. about >10).

SMILES | Selectivity Ratio (Table 2) | Selectivity Ratio (Table 3) | In vitro Selectivity
COC(C(=NOCCNC(=O)c1cc2c(=O)n(C)c(=O)n(C)c2[nH]1)C(O)C(C)O)C1Cc2cc3cc(OC4CC(OC5CC(O)C(O)C(C)O5)C(O)C(C)O4)c(C)c(O)c3c(O)c2C(=O)C1OC1CC(OC2CC(OC3CC(C)(O)C(O)C(C)O3)C(O)C(C)O2)C(O)C(C)O1 (centres unmarked) [YL-B179] | 4.4 | – | –
COC(C(=NOCCNC(=O)c1cc2cc(C(F)(F)F)ccc2[nH]1)C(O)C(C)O)C1Cc2cc3cc(OC4CC(OC5CC(O)C(O)C(C)O5)C(O)C(C)O4)c(C)c(O)c3c(O)c2C(=O)C1OC1CC(OC2CC(OC3CC(C)(O)C(O)C(C)O3)C(O)C(C)O2)C(O)C(C)O1 (centres unmarked) [YL-B175] | 1.2 | – | –
CO[C@H](C(=NOCCNC(=O)c1[nH]c2ccc(Cl)cc2c1-c1cnn(C)c1)[C@@H](O)[C@@H](C)O)[C@@H]1Cc2cc3cc(O[C@H]4C[C@@H](O[C@H]5C[C@@H](O)[C@H](O)[C@@H](C)O5)[C@H](O)[C@@H](C)O4)c(C)c(O)c3c(O)c2C(=O)[C@H]1O[C@H]1C[C@@H](O[C@H]2C[C@@H](O[C@H]3C[C@](C)(O)[C@H](O)[C@@H](C)O3)[C@@H](O)[C@@H](C)O2)[C@H](O)[C@@H](C)O1 [YL-C102] | 5.8 | – | –
CO[C@H](C(=NOCCNC(=O)c1[nH]c2ccc(Cl)cc2c1-c1ccc(Cl)cc1)[C@@H](O)[C@@H](C)O)[C@@H]1Cc2cc3cc(O[C@H]4C[C@@H](O[C@H]5C[C@@H](O)[C@H](O)[C@@H](C)O5)[C@H](O)[C@@H](C)O4)c(C)c(O)c3c(O)c2C(=O)[C@H]1O[C@H]1C[C@@H](O[C@H]2C[C@@H](O[C@H]3C[C@](C)(O)[C@H](O)[C@@H](C)O3)[C@@H](O)[C@@H](C)O2)[C@H](O)[C@@H](C)O1 [YL-C82] | 25.5 | 18 | 25.5
CO[C@H](C(=NOCCNC(=O)c1cc2cc(-c3cnn(C)c3)ccc2[nH]1)[C@@H](O)[C@@H](C)O)[C@@H]1Cc2cc3cc(O[C@H]4C[C@@H](O[C@H]5C[C@@H](O)[C@H](O)[C@@H](C)O5)[C@H](O)[C@@H](C)O4)c(C)c(O)c3c(O)c2C(=O)[C@H]1O[C@H]1C[C@@H](O[C@H]2C[C@@H](O[C@H]3C[C@](C)(O)[C@H](O)[C@@H](C)O3)[C@@H](O)[C@@H](C)O2)[C@H](O)[C@@H](C)O1 [YL-C20] | 14.6 | – | –
CO[C@H](C(=NOCCNC(=O)c1ccc2scnc2c1)[C@@H](O)[C@@H](C)O)[C@@H]1Cc2cc3cc(O[C@H]4C[C@@H](O[C@H]5C[C@@H](O)[C@H](O)[C@@H](C)O5)[C@H](O)[C@@H](C)O4)c(C)c(O)c3c(O)c2C(=O)[C@H]1O[C@H]1C[C@@H](O[C@H]2C[C@@H](O[C@H]3C[C@](C)(O)[C@H](O)[C@@H](C)O3)[C@@H](O)[C@@H](C)O2)[C@H](O)[C@@H](C)O1 [YL-C61] | 3.3 | – | –
CO[C@H](C(=NOCCNC(=O)c1cc2cc(OC(F)(F)F)ccc2[nH]1)[C@@H](O)[C@@H](C)O)[C@@H]1Cc2cc3cc(O[C@H]4C[C@@H](O[C@H]5C[C@@H](O)[C@H](O)[C@@H](C)O5)[C@H](O)[C@@H](C)O4)c(C)c(O)c3c(O)c2C(=O)[C@H]1O[C@H]1C[C@@H](O[C@H]2C[C@@H](O[C@H]3C[C@](C)(O)[C@H](O)[C@@H](C)O3)[C@@H](O)[C@@H](C)O2)[C@H](O)[C@@H](C)O1 [YL-B171] | 2.3 | – | –
COC(C(=NOCc1[nH]c2ccc(Cl)cc2c1-c1ccccc1)C(O)C(C)O)C1Cc2cc3cc(OC4CC(OC5CC(O)C(O)C(C)O5)C(O)C(C)O4)c(C)c(O)c3c(O)c2C(=O)C1OC1CC(OC2CC(OC3CC(C)(O)C(O)C(C)O3)C(O)C(C)O2)C(O)C(C)O1 (centres unmarked) [YL-C51] | 6.1 | – | –
CO[C@H](C(=NOCCNC(=O)c1[nH]c2ccc(C(F)(F)F)cc2c1-c1ccc(Cl)cc1)[C@@H](O)[C@@H](C)O)[C@@H]1Cc2cc3cc(O[C@H]4C[C@@H](O[C@H]5C[C@@H](O)[C@H](O)[C@@H](C)O5)[C@H](O)[C@@H](C)O4)c(C)c(O)c3c(O)c2C(=O)[C@H]1O[C@H]1C[C@@H](O[C@H]2C[C@@H](O[C@H]3C[C@](C)(O)[C@H](O)[C@@H](C)O3)[C@@H](O)[C@@H](C)O2)[C@H](O)[C@@H](C)O1 [YL-C67] | 10.6 | 11 | 10.6
CO[C@H](C(=NOCCNC(=O)c1c(-c2ccc(Cl)cc2)c2cc(Cl)ccc2n1C)[C@@H](O)[C@@H](C)O)[C@@H]1Cc2cc3cc(O[C@H]4C[C@@H](O[C@H]5C[C@@H](O)[C@H](O)[C@@H](C)O5)[C@H](O)[C@@H](C)O4)c(C)c(O)c3c(O)c2C(=O)[C@H]1O[C@H]1C[C@@H](O[C@H]2C[C@@H](O[C@H]3C[C@](C)(O)[C@H](O)[C@@H](C)O3)[C@@H](O)[C@@H](C)O2)[C@H](O)[C@@H](C)O1 [YL-C98] | 5.5 | – | –
COC(C(=NOCCNC(=O)c1[nH]c2ccc(C(F)(F)F)cc2c1-c1ccccc1)C(O)C(C)O)C1Cc2cc3cc(OC4CC(OC5CC(O)C(O)C(C)O5)C(O)C(C)O4)c(C)c(O)c3c(O)c2C(=O)C1OC1CC(OC2CC(OC3CC(C)(O)C(O)C(C)O3)C(O)C(C)O2)C(O)C(C)O1 (centres unmarked) [YL-C66] | – | 13 | 12.9
COC(C(=NOCCNC(=O)c1[nH]c2ccc(Cl)cc2c1-c1ccnn1C)C(O)C(C)O)C1Cc2cc3cc(OC4CC(OC5CC(O)C(O)C(C)O5)C(O)C(C)O4)c(C)c(O)c3c(O)c2C(=O)C1OC1CC(OC2CC(OC3CC(C)(O)C(O)C(C)O3)C(O)C(C)O2)C(O)C(C)O1 (centres unmarked) [YL-C104] | 4.1 | – | –
CO[C@H](C(=NOCCNC(=O)c1[nH]c2ccc(F)cc2c1-c1ccc(Cl)cc1)[C@@H](O)[C@@H](C)O)[C@@H]1Cc2cc3cc(O[C@H]4C[C@@H](O[C@H]5C[C@@H](O)[C@H](O)[C@@H](C)O5)[C@H](O)[C@@H](C)O4)c(C)c(O)c3c(O)c2C(=O)[C@H]1O[C@H]1C[C@@H](O[C@H]2C[C@@H](O[C@H]3C[C@](C)(O)[C@H](O)[C@@H](C)O3)[C@@H](O)[C@@H](C)O2)[C@H](O)[C@@H](C)O1 [YL-C118] | 15.9 | – | –
CO[C@H](C(=NOCc1ccc2scnc2c1)[C@@H](O)[C@@H](C)O)[C@@H]1Cc2cc3cc(O[C@H]4C[C@@H](O[C@H]5C[C@@H](O)[C@H](O)[C@@H](C)O5)[C@H](O)[C@@H](C)O4)c(C)c(O)c3c(O)c2C(=O)[C@H]1O[C@H]1C[C@@H](O[C@H]2C[C@@H](O[C@H]3C[C@](C)(O)[C@H](O)[C@@H](C)O3)[C@@H](O)[C@@H](C)O2)[C@H](O)[C@@H](C)O1 [YL-C52] | 1.3 | – | –
CO[C@H](C(=NOCCNC(=O)c1[nH]c2ccc(Cl)cc2c1C1CC1)[C@@H](O)[C@@H](C)O)[C@@H]1Cc2cc3cc(O[C@H]4C[C@@H](O[C@H]5C[C@@H](O)[C@H](O)[C@@H](C)O5)[C@H](O)[C@@H](C)O4)c(C)c(O)c3c(O)c2C(=O)[C@H]1O[C@H]1C[C@@H](O[C@H]2C[C@@H](O[C@H]3C[C@](C)(O)[C@H](O)[C@@H](C)O3)[C@@H](O)[C@@H](C)O2)[C@H](O)[C@@H](C)O1 [YL-C124] | 7.5 | – | –
COC(C(=NOCCNC(=O)c1[nH]c2ccc(O)cc2c1-c1ccc(Cl)cc1)C(O)C(C)O)C1Cc2cc3cc(OC4CC(OC5CC(O)C(O)C(C)O5)C(O)C(C)O4)c(C)c(O)c3c(O)c2C(=O)C1OC1CC(OC2CC(OC3CC(C)(O)C(O)C(C)O3)C(O)C(C)O2)C(O)C(C)O1 (centres unmarked) [YL-C120] | 4.1 | – | –
COC(C(=NOCCNC(=O)c1c(-c2ccc(Cl)cc2)c2cc(Cl)ccc2n1CC(C)C)C(O)C(C)O)C1Cc2cc3cc(OC4CC(OC5CC(O)C(O)C(C)O5)C(O)C(C)O4)c(C)c(O)c3c(O)c2C(=O)C1OC1CC(OC2CC(OC3CC(C)(O)C(O)C(C)O3)C(O)C(C)O2)C(O)C(C)O1 (centres unmarked) [YL-C100] | 15.5 | – | –
COC(C(=NOCC(=O)Nc1cccc2cnccc12)C(O)C(C)O)C1Cc2cc3cc(OC4CC(OC5CC(O)C(O)C(C)O5)C(O)C(C)O4)c(C)c(O)c3c(O)c2C(=O)C1OC1CC(OC2CC(OC3CC(C)(O)C(O)C(C)O3)C(O)C(C)O2)C(O)C(C)O1 (centres unmarked) [YL-B160] | 13.1 | – | –
CO[C@H](C(=NOCCNC(=O)c1cc2cc(Cl)ccc2[nH]1)[C@@H](O)[C@@H](C)O)[C@@H]1Cc2cc3cc(O[C@H]4C[C@@H](O[C@H]5C[C@@H](O)[C@H](O)[C@@H](C)O5)[C@H](O)[C@@H](C)O4)c(C)c(O)c3c(O)c2C(=O)[C@H]1O[C@H]1C[C@@H](O[C@H]2C[C@@H](O[C@H]3C[C@](C)(O)[C@H](O)[C@@H](C)O3)[C@@H](O)[C@@H](C)O2)[C@H](O)[C@@H](C)O1 [YL-B152] | 2.1 | – | 2.1
CO[C@H](C(=NOCCNC(=O)c1[nH]c2ccc(C(F)(F)F)cc2c1-c1ccc(F)c(Cl)c1)[C@@H](O)[C@@H](C)O)[C@@H]1Cc2cc3cc(O[C@H]4C[C@@H](O[C@H]5C[C@@H](O)[C@H](O)[C@@H](C)O5)[C@H](O)[C@@H](C)O4)c(C)c(O)c3c(O)c2C(=O)[C@H]1O[C@H]1C[C@@H](O[C@H]2C[C@@H](O[C@H]3C[C@](C)(O)[C@H](O)[C@@H](C)O3)[C@@H](O)[C@@H](C)O2)[C@H](O)[C@@H](C)O1 [YL-C68] | – | 8 | –
COC(C(=NOCCNC(=O)c1cc2cc(O)ccc2[nH]1)C(O)C(C)O)C1Cc2cc3cc(OC4CC(OC5CC(O)C(O)C(C)O5)C(O)C(C)O4)c(C)c(O)c3c(O)c2C(=O)C1OC1CC(OC2CC(OC3CC(C)(O)C(O)C(C)O3)C(O)C(C)O2)C(O)C(C)O1 (centres unmarked) [YL-B170] | 5.2 | – | –
COC(C(=NOCC(Cc1c[nH]c2ccccc12)NC(=O)c1cc2cc(Cl)ccc2[nH]1)C(O)C(C)O)C1Cc2cc3cc(OC4CC(OC5CC(O)C(O)C(C)O5)C(O)C(C)O4)c(C)c(O)c3c(O)c2C(=O)C1OC1CC(OC2CC(OC3CC(C)(O)C(O)C(C)O3)C(O)C(C)O2)C(O)C(C)O1 (centres unmarked) [YL-C54] | 3.2 | – | –
CO[C@H](C(=NOCCNC(=O)c1cc2cc(F)ccc2[nH]1)[C@@H](O)[C@@H](C)O)[C@@H]1Cc2cc3cc(O[C@H]4C[C@@H](O[C@H]5C[C@@H](O)[C@H](O)[C@@H](C)O5)[C@H](O)[C@@H](C)O4)c(C)c(O)c3c(O)c2C(=O)[C@H]1O[C@H]1C[C@@H](O[C@H]2C[C@@H](O[C@H]3C[C@](C)(O)[C@H](O)[C@@H](C)O3)[C@@H](O)[C@@H](C)O2)[C@H](O)[C@@H](C)O1 [YL-B168] | 9.1 | – | –
